{"source": "the supplement of paper PMC4604168 (melanoma cell lines)", "note": "This is one part of the list. Single values are uncertain, as repeats are few or missing.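 Also: cells treated in 1,536-well plates, then fixed and DAPI-stained, with nuclei counted from automated high-throughput microscope images.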"}
{"system": "WM115", "assay": "cell count relative to DMSO control; melanoma cells; higher = more viable cells", "details": "library dose: standard library concentration; 72 h", "units": {"cell count": "%"}}
{"smiles": "NC(=O)c1ccc(N(C(N)=O)c2c(F)cccc2F)nc1-c1ccc(F)cc1F", "note": "+ COc1cc2ncnc(Nc3ccc(Oc4ccccc4)cc3)c2cc1OC [SrcI1] (first compound 2 µM, partner dose 10 µM)", "cell count": 77.4}
{"smiles": "CCCCCCCCc1ccc(CCC(N)(CO)CO)cc1", "note": "[fingolimod] + Oc1cc(-c2nc(-c3ccccc3)[nH]c2-c2ccncc2)ccc1Cl [L779450] (first compound 10 µM, partner dose 1 µM)", "cell count": 12.2}
{"smiles": "NC(=O)c1ccc(N(C(N)=O)c2c(F)cccc2F)nc1-c1ccc(F)cc1F", "note": "+ Oc1cc(-c2nc(-c3ccccc3)[nH]c2-c2ccncc2)ccc1Cl [L779450] (first compound 2 µM, partner dose 1 µM)", "cell count": 46.1}
{"smiles": "COc1cc2c(Oc3ccc4[nH]c(C)cc4c3F)ncnc2cc1OCCCN1CCCC1", "note": "[cediranib] + COC(=O)c1sccc1S(=O)(=O)Nc1ccc(Nc2ccccc2)cc1OC [GSK0660] (first compound 2 µM, partner dose 5 µM)", "cell count": 95.1}
{"smiles": "NC(=O)c1ccc(N(C(N)=O)c2c(F)cccc2F)nc1-c1ccc(F)cc1F", "note": "+ Cc1cc([N+](=O)[O-])ccc1NS(=O)(=O)c1cc(Cl)ccc1Cl [FH535] (first compound 2 µM, partner dose 5 µM)", "cell count": 98.9}
{"smiles": "Cc1ccc(NC(=O)c2cccc(N(C)C)c2)cc1NC(=O)c1ccc(O)cc1", "note": "+ N#Cc1c(O)c2c(-c3ccc(-c4ccccc4O)cc3)csc2[nH]c1=O [A769662] (first compound 10 µM, partner dose 10 µM)", "cell count": 97.5}
